Sequences and labels used below:
T1: UNK ZnF1-3 (human, UniProt Q9C0B0 31-174)
T1 sequence: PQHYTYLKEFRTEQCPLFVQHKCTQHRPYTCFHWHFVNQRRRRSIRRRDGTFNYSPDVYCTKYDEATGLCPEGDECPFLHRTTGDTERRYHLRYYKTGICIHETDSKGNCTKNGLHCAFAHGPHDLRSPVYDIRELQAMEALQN

B1: chr3:159597999:159598000:+_ENSMUSG00000028173_ENSMUST00000068952|mus_hu|FALSE|FALSE (ssRNA)
RNA: GGGAGUUCUACAGUCCGACGAUCAAGCAAGAAGUUAAAAAAGCUUUUCAGACCCGAAGGCCAUUUAAUACAGUAAAUCUUACUUGGGUAGUUUAGCAAACAUUUUUUAAAACCCACAUCCAACAGAUUGGUUAGUAUUAGAUACAACAGAGGAUUGAGCAUCA
B2: chrX:100668114:100668115:+_ENSG00000126945_ENST00000316594|hu_hu|motif|central (ssRNA)
RNA: GGGAGUUCUACAGUCCGACGAUCUCCCAUCAUUUGGCUACCAUAAGCGCCACCACUUGCCCCUGCUGUAGAAUUCAAAAAAAGUUCGGCAUAGCUGUGAUCGUAAGCACCCCCACUUGUUCCUGCAGUAGAAUUUAAGAAGAGCAACAGAGGAUUGAGCAUCA
B3: chr16:46708560:46708561:-_ENSG00000069329_ENST00000568784|perfect_dup|motif|central (ssRNA)
RNA: GGGAGUUCUACAGUCCGACGAUCAAAAAGUUUAAUCUCAGCUGGAAUUCCGGGUCCAUCUUCACGAUGAGCAAAUAAAGCGGAUCUGUCAAUUAAAGCAAUGAUUAUGUUUUUCACAUUUACAUUUUGGUGUAAUUCAGCACACAACAGAGGAUUGAGCAUCA
B4: 93591217_93594293_1026_CDS_ENSMUSG00000058013_ENSMUST00000074733|mouse|control|control (ssRNA)
RNA: GGGAGUUCUACAGUCCGACGAUCUUCGUAGGUCUCCUGAAGACUGAAGGGCUUGCUGUCGGGGUCCGUGUCCUUGAAGCCCAUCUCCUCAAGCUUGCAGCGCCGAUACAACUCGUAGUGGCGAGUGUGCGUCUGCUCUCGCAGCAACAGAGGAUUGAGCAUCA
B5: chr17:57816259:57816260:+_ENSG00000062716_ENST00000262291|hu_hu|FALSE|FALSE (ssRNA)
RNA: GGGAGUUCUACAGUCCGACGAUCCAGAUAAAGCAGAAAGGUGUGCAGCCCUGUUCCAAGCCCAACAGAAGACAAAAUUCCUAAGCCUAUCCAGUAGGCAUACAAAAGAAACUGUUUCUCUAUACGUUGCACAUACUGUUGAUGCAACAGAGGAUUGAGCAUCA
B6: chr18:56819859:56819860:+_ENSG00000166562_ENST00000588875|hu_mus|hu_hu_hu_mus_True|8_38 (ssRNA)
RNA: GGGAGUUCUACAGUCCGACGAUCAACCUUGAUUACUCUGUGAACUAUCGGAAUGUCUCUUCCUUCAACCUUAAAAACAACUAUUUCACCAGCUCUGAUUGGGUCUUCCCGGAAAUUCGUGAGGAACAGGAGGUCUCCUCUGUGCAACAGAGGAUUGAGCAUCA
B7: 152020827_152021121_235_CDS_ENSMUSG00000025437_ENSMUST00000117492|mouse|control|control (ssRNA)
RNA: GGGAGUUCUACAGUCCGACGAUCCUGACAAGCGCCGAGAGAUUUCUGUAUCAAGUCCUCUUUCGUUAUUUCACCAACUGAAUCCAAAUGUGGACAAUGAUUUCGAAAAGUCGUCAUUUUCUUACAGUUUUCCUUCUCUUUCUCCAACAGAGGAUUGAGCAUCA
B8: chr2:47387770:47387771:-_ENSG00000143933_ENST00000272298|hu_mus|hu_hu_hu_mus_True|28_38 (ssRNA)
RNA: GGGAGUUCUACAGUCCGACGAUCAAGGUUUAAGGACAAUGACAGUAAGAUAAGGGAAGAAAACAUGGAGGAAUGAAGUCCUAAUUACUAUACAUGCAUAUUUUUUUGACAGUAGGGGGGGGAACCUUUUACAGAUAAGUUACACAACAGAGGAUUGAGCAUCA
B9: chr1:39494447:39494448:+_ENSG00000168653_ENST00000372967|hu_mus|hu_hu_hu_mus_False|38_88 (ssRNA)
RNA: GGGAGUUCUACAGUCCGACGAUCGCACCGAGCGGCGUUCUUAUAGGGCUGUUCACCGCUUAGGAACAUAAAGUGCCGGUCCAGGCUGAUGCCCAGCCUUUUCUGGAUGUCAAGGAAAGGCAUGGCUCUGCAGUGCCCUUGUCACAACAGAGGAUUGAGCAUCA
B10: chr12:105536279:105536280:+_ENSG00000136051_ENST00000332180|hu_mus|hu_hu_hu_mus_True|8_8 (ssRNA)
RNA: GGGAGUUCUACAGUCCGACGAUCAGCACUGAACAUGUAAUGUAAUCUGGCUGCAUCGACAGCAUUUUCAUAUACAUCAUCUAAAUAAAUCGGGAAGACAGCGCGAUGCCAGUAUAAAAAACAGCAGUCACAUUGUGCUUGGACCAACAGAGGAUUGAGCAUCA
B11: chr4:132324321:132324322:+_ENSMUSG00000028884_ENSMUST00000102561|mus_hu|FALSE|FALSE (ssRNA)
RNA: GGGAGUUCUACAGUCCGACGAUCACAUCUUGGUCACGAUUCUCCGCAAAGAGGCCGAGAAGGUGCGGGUCUGGGGGAAUAGCGGAAAACCACAGAACGCGGCCGCCACUGCGCCGCUCUGGCUACUUUUCUCUGGCACCACAACAACAGAGGAUUGAGCAUCA
B12: chr1:58468927:58468928:-_ENSMUSG00000026034_ENSMUST00000148330|mus_mus|mus_mus_mus_hu_False|38_88 (ssRNA)
RNA: GGGAGUUCUACAGUCCGACGAUCAAUUACUGAAAAAGAUGUUCAUUUAUUUGGUUUUGUACUUAAUGAACCAAAUUACCCAAACAAAAUAAACAUGUUUACAAAUUAAUGUUAAGAAUUUACAAAGCUGUACAAAAUAACUUACAACAGAGGAUUGAGCAUCA
B13: 121870484_121870604_1008_3pUTR_ENSMUSG00000042719_ENSMUST00000042163|mouse|control|control (ssRNA)
RNA: GGGAGUUCUACAGUCCGACGAUCGCGCCUGAUGAGCUCCAGCUUAGCUAGGUGUGGGCCUCGGACAUGUCGAGAGCUUUGUGAUGCCUCUGUUAUCCUGUCCUCUAUAAACUUCACAGCAUCUUCUGCAGAGCAGUGUACUUCCAACAGAGGAUUGAGCAUCA
B14: chr6:114274515:114274516:-_ENSG00000196591_ENST00000368632|hu_hu|FALSE|FALSE (ssRNA)
RNA: GGGAGUUCUACAGUCCGACGAUCCAUUACACGAUCUGUUGUAUAAAAAGCUUCUUCAACACCAUCACCAUGAUGAAUAUCUAUAUCAAUAUAUAAGACUCUCUGAUGAUACUUUAGUAAUUCAAGGAUGGCAAGCACAAUAUCCAACAGAGGAUUGAGCAUCA

Some of the results follow.

Here are results for 14 molecules from paper PMC12136788.

The experiment deals with T1, UNK ZnF1-3. The experiment in a line: nsRBNS (natural sequence RNA bind-n-seq); RBNS binding buffer (assumed for nsRBNS): 25 mM Tris pH 7.5, 150 mM KCl, 3 mM MgCl2, 0.01% Triton X-100, 500 ug/ml BSA, 20 U/ml SUPERase-In, 4 C; UNK is unkempt and MSI1 is Musashi-1; names of the RNAs are library labels; protein concentration not given here; high values mean tight binding.
On to B1, for which the binding signal was determined as 0.744 enrichment R.
As for B2, the figure is 2.17 enrichment R.
As for B3, the figure is 1.34 enrichment R; as for B4, 0.625 enrichment R; as for B5, 1.22 enrichment R.
B6 displayed a binding signal of 0.718 enrichment R.
Consider B7, for which the binding signal was determined as 0.496 enrichment R.
To B8 belongs 1.82 enrichment R; to B9, 0.845 enrichment R.
As for B10, the figure is 2.97 enrichment R; as for B11, 1.16 enrichment R; as for B12, 0.362 enrichment R.
To B13 belongs 0.649 enrichment R; to B14, 1.51 enrichment R.
